Results: paper PMC6315623
These are yes or no findings as the source states them, for the method shown. For part of these data: In cells and extracts the contact can be indirect. Some binding calls cover weakened binding; strength is not graded here. Where a sequence is shown, tags or fusion partners need not be part of it.

Key:
[1] = target: HAdV-A12 E1A CR2 (residues 80-125), LexA DBD fusion (human adenovirus A12 (HAdV-A12)) (UniProt P03259); test: two-hybrid
[2] = target: HAdV-A12 E1A N-terminal PXLXP motif, wildtype (residues 80-90), LexA DBD fusion (human adenovirus A12 (HAdV-A12)) (UniProt P03259); test: two-hybrid
[3] = target: HAdV-A12 E1A C-terminal PXLXP motif, wildtype (residues 95-105), LexA DBD fusion (human adenovirus A12 (HAdV-A12)) (UniProt P03259); test: two-hybrid
[4] = target: HAdV-E4 E1A CR2 (residues 91-145), LexA DBD fusion (human adenovirus E4 (HAdV-E4)) (UniProt P10407); test: two-hybrid
[5] = target: GFP-tagged full-length HAdV-A12 E1A (human adenovirus A12 (HAdV-A12)) (UniProt P03259); test: co-IP
[6] = target: GFP-tagged full-length HAdV-E4 E1A (human adenovirus E4 (HAdV-E4)) (UniProt P10407); test: co-IP

B1: BS69 MYND domain (residues 427-602) fused to a B42 activation domain (domain or fragment, UniProt Q15326 427-602)
chain: MPQPIEKVSVSTQTKKLSASSPRMLHRSTQTTNDGVCQSMCHDKYTKIFNDFKDRMKSDHKRETERVVREALEKLRSEMEEEKRQAVNKAVANMQGEMDRKCKQVKEKCKEEFVEEIKKLATQHKQLISQTKKKQWCYNCEEEAMYHCCWNTSYCSIKCQQEHWHAEHKRTCRRKR
binding [1]: binds
binding [2]: binds
binding [3]: binds
binding [4]: no binding

B2: HA-tagged BS69 MYND domain (residues 427-602) (domain or fragment, UniProt Q15326 427-602)
chain: B1 chain
binding [5]: binds
binding [6]: no binding
